The campaign covered roughly 310,000 compounds. About 2,200 (0.71%) showed an effect of 50% or more. Effects have a minus sign here. Some of the results follow.
These compounds were tested against human ether-à-go-go-related gene (hERG) potassium channel (human, UniProt Q12809) (assay: primary screen, population patch clamp on CHO cells stably expressing hERG).
Chain of human ether-à-go-go-related gene (hERG) potassium channel (Q12809 whole entry, looked up): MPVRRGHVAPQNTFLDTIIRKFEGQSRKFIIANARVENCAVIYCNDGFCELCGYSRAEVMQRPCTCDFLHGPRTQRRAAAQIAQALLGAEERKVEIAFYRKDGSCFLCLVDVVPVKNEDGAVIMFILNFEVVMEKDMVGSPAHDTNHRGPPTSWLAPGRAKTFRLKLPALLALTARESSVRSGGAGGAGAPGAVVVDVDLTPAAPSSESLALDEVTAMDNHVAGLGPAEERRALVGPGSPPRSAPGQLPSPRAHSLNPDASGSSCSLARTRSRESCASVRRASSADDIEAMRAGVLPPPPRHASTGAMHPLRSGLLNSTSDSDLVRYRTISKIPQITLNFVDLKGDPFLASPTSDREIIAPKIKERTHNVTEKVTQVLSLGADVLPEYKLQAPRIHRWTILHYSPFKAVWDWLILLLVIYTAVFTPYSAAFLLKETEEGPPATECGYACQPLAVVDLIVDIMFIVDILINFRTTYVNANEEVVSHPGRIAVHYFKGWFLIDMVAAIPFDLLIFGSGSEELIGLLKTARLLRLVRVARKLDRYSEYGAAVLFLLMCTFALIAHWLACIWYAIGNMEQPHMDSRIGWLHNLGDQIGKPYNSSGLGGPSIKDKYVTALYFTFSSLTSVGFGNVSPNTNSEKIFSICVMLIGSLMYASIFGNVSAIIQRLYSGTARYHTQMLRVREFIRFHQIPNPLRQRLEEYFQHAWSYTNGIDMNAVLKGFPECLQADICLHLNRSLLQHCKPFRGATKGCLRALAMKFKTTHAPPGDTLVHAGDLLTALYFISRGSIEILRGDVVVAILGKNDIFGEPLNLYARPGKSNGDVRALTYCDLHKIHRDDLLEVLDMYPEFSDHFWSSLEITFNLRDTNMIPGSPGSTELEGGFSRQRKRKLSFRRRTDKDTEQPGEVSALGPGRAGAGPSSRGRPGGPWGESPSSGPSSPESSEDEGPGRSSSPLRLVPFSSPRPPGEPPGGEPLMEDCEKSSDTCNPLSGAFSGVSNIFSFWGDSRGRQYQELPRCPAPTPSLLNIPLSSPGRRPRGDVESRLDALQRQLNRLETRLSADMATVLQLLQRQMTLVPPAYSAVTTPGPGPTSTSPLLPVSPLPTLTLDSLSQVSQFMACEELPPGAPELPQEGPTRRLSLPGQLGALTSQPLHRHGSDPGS

Row | Compound | hERG current change (%, negative = inhibition) at 1uM
1 | CC(NC(=O)Cn1cnnn1)c1cccc(C(F)(F)F)c1 (stereo not drawn) | 15.1%
2 | O=C(C[n+]1ccccc1)Nc1ccccc1[N+](=O)[O-].[Cl-] | 21.9%
3 | COc1ccc(CN2C3CCCC2CC(NC(=O)Nc2ccccc2)C3)cc1 (stereo not drawn) | -64%
4 | O=C(NCc1ccccc1)NS(=O)(=O)c1ccccc1Cl | 5.09%
5 | O=C(c1ccsc1)N1CCCC(Nc2cccc(F)c2)C1 (stereo not drawn) | 3.86%
6 | CCCOC(=O)CCn1c(=S)oc2ccccc21 | 9.89%
7 | O=[N+]([O-])c1ccc(OCCO)c(P(=O)(c2ccccc2)c2ccccc2)c1 | 11.9%
8 | COc1ccccc1CNC(=O)C1CCN(C(=O)c2sccc2-n2cccc2)CC1 | 16.2%
9 | O=C(Cn1c(COc2ccccc2)nc2ccccc21)Nc1cc(Cl)ccc1Cl | 11.5%
10 | C#CC(=O)N(c1cc(OC)ccc1OC)C(C(=O)NC1CCCC1)c1cccs1 (stereo not drawn) | 4.6%
11 | COc1cc2sc3ccc(C#Cc4ccc(N)cc4)cc3c(=O)c2cc1OC | 15.5%
12 | CSCCC(NS(=O)(=O)c1ccc2c(c1)OCCO2)C(=O)N(C)Cc1ccc(F)cc1 (stereo not drawn) | 11.5%
13 | CN(C)CC/C=C1\c2cc(F)ccc2CSc2ccccc21.O=C(O)/C=C\C(=O)O | -0.682%
14 | COc1ccccc1C(=O)C1CCCN(C(=O)c2snnc2C)C1 (stereo not drawn) | 12.9%
15 | Cc1c(Cl)cccc1NC(=S)N(CCN(C)C)C(C)c1ccco1 (stereo not drawn) | -6.45%
16 | CC1=C(C(=O)OCCC(C)C)C(c2ccc3c(c2)OCO3)NC(=O)N1 (stereo not drawn) | 9.63%
17 | O=c1[nH]cc(NCCc2ccccc2)c(=O)[nH]1 | 10.9%
18 | COc1ccccc1/C=C/C=N/NC(=O)CCn1cnc2ccccc21 | 3.08%
19 | Cc1ccc(-c2nn(-c3ccccc3)cc2/C=C2\SC(=S)N(CCCCCC(=O)O)C2=O)o1 | 12%
20 | CC1CN(C(=O)Nc2ccc(F)cc2F)CC(C)O1 (stereo not drawn) | -1.61%
21 | Cc1nnsc1-c1c(C(=O)N2CCOCC2)c(C)nn1-c1ccccc1 | 10.1%
22 | COC(=O)c1c(C)[nH]c(C(=O)OC(C)C(=O)N(C)C2CCCCC2)c1C (stereo not drawn) | 3.68%
23 | CC(Cc1c[nH]c2ccccc12)NC(=O)OCCCl (stereo not drawn) | 16.9%
24 | C=CCn1c(CNC(=O)CCC)nc2ccccc21 | 15.7%
25 | C=CCn1c(=O)[nH]c2cc(C(=O)N3CCN(c4ccc(C(C)=O)cc4)CC3)ccc2c1=O | -0.651%
26 | CC1CN(S(=O)(=O)c2cccc(C(=O)OCC(=O)NCc3ccccc3)c2)CC(C)O1 (stereo not drawn) | 5.46%
27 | COc1ccccc1NC(=O)C(C)OC(=O)CCSc1ccc(F)cc1 (stereo not drawn) | 5.73%

Row | Compound | hERG current change (%, negative = inhibition) at 1uM
28 | CC(=O)Nc1ccc(S(=O)(=O)NNC(=O)c2cccc([N+](=O)[O-])c2)cc1 | 12.6%
29 | CC(C(=O)N1CCCc2ccccc21)N1C(=O)c2ccccc2C1=O (stereo not drawn) | -9.98%
30 | CC(C)(C)C1CCC(=NNC(=O)C(=O)NC2CCCCC2)CC1 (stereo not drawn) | 7.44%
31 | Cc1ccc(S(=O)(=O)N(C)C)cc1NC(=O)COC(=O)CCC(=O)c1cccs1 | 3.75%
32 | CC(C)(C)[C@@H]1C=C(C(=O)N2CCOCC2)O[C@H](OCc2ccc(CO)cc2)C1 | 2.37%
33 | Cc1ccc(C(=O)NNC(=O)C2CCN(Cc3ccc(Cl)c(Cl)c3)CC2)cc1 | 9.55%
34 | CCc1ccc(-n2c(O)c(/C=N/NC(=O)c3ccncc3)c(=O)[nH]c2=O)cc1 | 12.1%
35 | O=C(Nc1ccc(N2CCN(C(=O)c3ccco3)CC2)cc1)c1cccs1 | -2.67%
36 | Cc1cccc(C)c1NC(=O)CNC(=O)C(Cc1ccccc1)NC(=O)c1ccccc1 (stereo not drawn) | 17.4%
37 | Cc1ccccc1NC(=O)CN1C(=O)CSc2ccccc21 | 16.7%
38 | Cc1nn(CC(=O)Nc2ccc(Cl)cc2Cl)c(=O)c2ccccc12 | 12.8%
39 | CN(C)CCn1c2c(c(SCC(=O)NCc3ccccc3)nc1=O)CCCC2 | 5.22%
40 | CCCCc1cc(=O)oc2c(C)c(OCC(=O)N3CCC(C(=O)O)(c4ccccc4)CC3)ccc12 | 9.44%
41 | CCN(CC)c1ccc2cc(C=O)c(=O)oc2c1 | 29.7%
42 | Cc1ccc(NC(=O)C2C3C=CC4(O3)C2C(=O)N(CCCN2CCCCC2)C4C(=O)NC2CCCCC2)cc1C (stereo not drawn) | 22.2%
43 | CC(C(=O)Nc1ccc(Cl)cc1Cl)N1C(=O)NC2(CCCCCCC2)C1=O (stereo not drawn) | 9.52%
44 | Cc1cccc(N2CCN(C(=O)c3ccc4c(c3)NC(=O)C(CSCc3cccc(F)c3)N4)CC2C)c1 (stereo not drawn) | 11.6%
45 | O=C(Cc1cccs1)N(Cc1cccs1)C1(C(=O)NC2CCCCC2)CCCCC1 | 6.3%
46 | CCC(=O)Nc1cccc(Oc2nc(C)cc(C)c2C#N)c1 | 4.77%
47 | CN(C)CCNC(=O)c1onc(CSc2ccc(F)c(F)c2)c1C(=O)NCCN(C)C | 14.5%
48 | Clc1ccc(-c2nnc(-c3cccnc3)o2)cc1 | 3.21%
49 | COc1ccc2[nH]c(CN3CCC(CO)(CCOc4ccccc4)CC3)c(C)c2c1 | 9.37%
50 | CN(CC(=O)Nc1ccc(N2CCOCC2)cc1)C(=O)CC(c1ccccc1)c1ccccc1 | 11.4%
51 | Cc1ccc(CNC(=O)[C@@H](NC(=O)C2CCN(C(=O)[C@@H](N)CC(C)C)CC2)C(C)C)cc1 | 18.8%
52 | O=C(NC1CCCN(Cc2ccc(Cl)cc2)C1)C1CCC1 (stereo not drawn) | 6.34%
53 | CCOc1ccc(S(=O)(=O)NCCC(=O)NCC(c2ccccc2OC)N2CCCC2)cc1 (stereo not drawn) | 7.53%
54 | CCc1ccc([C@@H]2CC=C(C(=O)O)[C@H](c3ccc(F)cc3)N2S(=O)(=O)c2ccc(C)cc2)cc1 | 14.1%

From PMC4336329 (PLoS ONE, 2015)
